Experimental data: PubChem BioAssay AID1721 (National Center for Advancing Translational Sciences (NCATS), 2009)
Screen size: about 290,000 compounds; about 1,100 (0.38%) were called active. Inconclusive results, whose numbers are uncertain, are shown with a selection of clear calls. Calls follow the shape of the dose curve; as a rule, active = well fitted inhibition curve with a large enough effect; inconclusive = small, poorly fitted or top-dose-only effect, or another doubt; inactive = no such curve, though single readings can be large or run the other way. Potencies beside an inconclusive call are fits to weak or partial responses and may not hold up.

target: Pyruvate kinase (Leishmania mexicana) (UniProt Q27686); experiment: qHTS Assay for Inhibitors of Leishmania Mexicana Pyruvate Kinase (LmPK); details: purified LmPK, Kinase-Glo ATP luminescence, 1 h; series mostly up to 57.5 µM
UniProt Q27686, sequence (Q27686 whole entry, looked up): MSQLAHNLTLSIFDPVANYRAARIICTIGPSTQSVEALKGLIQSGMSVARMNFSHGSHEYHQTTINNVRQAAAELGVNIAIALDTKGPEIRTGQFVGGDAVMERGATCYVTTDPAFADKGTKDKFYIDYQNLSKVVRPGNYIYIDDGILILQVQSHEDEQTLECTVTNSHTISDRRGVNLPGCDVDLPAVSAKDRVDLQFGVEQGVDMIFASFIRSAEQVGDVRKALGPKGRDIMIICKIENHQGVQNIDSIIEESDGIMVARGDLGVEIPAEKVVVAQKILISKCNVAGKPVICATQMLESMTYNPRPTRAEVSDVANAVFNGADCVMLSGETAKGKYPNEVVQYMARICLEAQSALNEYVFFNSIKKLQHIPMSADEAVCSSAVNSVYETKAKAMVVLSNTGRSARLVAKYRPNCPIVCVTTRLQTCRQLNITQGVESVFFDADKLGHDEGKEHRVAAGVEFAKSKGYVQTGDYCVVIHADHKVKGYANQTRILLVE
Procedure, shortened: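 0.1 nM LmPK, 0.5 mM PEP, 0.1 mM ADP; 50 mM imidazole pH 7.2, 7 mM MgCl2, 50 mM KCl; 1 h RT. Kinase-Glo luminescence readout, normalized to no-enzyme (full inhibition) and uninhibited wells.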
Potency is read from the fitted curve at half-maximal effect; tags tell the direction and shape of the fitted curve.

Row | Compound | Potency
1 | CC(C)(C)c1nnc2sc(SCC(=O)c3ccccc3)nn2c1=O | inactive
2 | Cc1ccc(S(=O)(=O)NCC2(c3ccccc3)CCN(C)CC2)cc1 | inactive
3 | Cc1ccccc1-n1c(-c2csc(C)c2C)n[nH]c1=S | active: 7.94 µM
4 | N/C(=N\OC(=O)c1ccc(Cl)cc1Cl)c1cccnc1 | inconclusive: 20 µM [falling, single point]
5 | Cc1ccc2nsnc2c1NC(=O)c1ccc(-c2cc(Cl)ccc2Cl)o1 | inactive
6 | CCOc1ccc(NC(=O)COC(=O)c2ccc3c(c2)C(=O)N(CCc2ccccc2)C3=O)cc1 | inactive
7 | N#C/C(=C\c1ccccc1O)C(=O)Nc1cccnc1 | inconclusive: 8.91 µM [falling, partial curve]
8 | Cc1c(/C=N/Nc2ccc([N+](=O)[O-])cn2)c2ccccc2n1Cc1ccccc1 | inactive
9 | Fc1ccc(-n2c(-c3cc(C4CC4)[nH]n3)n[nH]c2=S)cc1Cl | active: 11.2 µM
10 | Clc1ncnc2c1oc1ccccc12 | inactive
11 | Cc1cc2ccccn2c1C(=O)c1ccncc1 | inactive
12 | O=c1nc(N2CCCCC2)nc(Nc2ccccc2)[nH]1 | inactive
13 | CSc1ccccc1C(=O)NCCOc1ccccc1C | inactive
14 | Cc1cccc(OC(C)C(=O)NC2CCS(=O)(=O)C2)c1C (centres undefined) | inactive
15 | O=C1/C(=C/c2cccs2)Cc2ccccc21 | inconclusive: 14.1 µM [falling, partial curve]
16 | O=C(N/N=C/c1ccc(O)c([N+](=O)[O-])c1)c1ccncc1 | inconclusive: 14.1 µM [falling, partial curve]
17 | CCOC(=O)C(C)Sc1nc2c(cnn2-c2ccc(F)cc2)c(=O)[nH]1 (centres undefined) | inactive
18 | COC(=O)c1sccc1NC(=O)Nc1ccc(C)c(C)c1 | inconclusive: 31.6 µM [falling, single point]
19 | CC(=O)Nc1cccc(-c2cn3ccc(C)cc3n2)c1 | inconclusive: 22.4 µM [falling, partial curve]
20 | O=C(CSc1ccccc1)Nc1ccc(N2CCOCC2)cc1 | inactive
21 | Cc1c(C(=O)N2CCc3ccccc32)oc2ccccc12 | inconclusive: 17.8 µM [falling, partial curve]

Row | Compound | Potency
22 | Cc1cccc(/C=N/Nc2ccc3ccccc3n2)c1 | inconclusive: 25.1 µM [falling, partial curve]
23 | COc1ccc(N=C2SCC(=O)N2c2ccc(OC)cc2)cc1 | inactive
24 | O=C(NC1CCCCCC1)c1ccc(N2CCCC2=O)cc1 | inconclusive: 28.2 µM [falling, partial curve]
25 | CN(C)c1ccc(/C=C/c2ccc3ccccc3[n+]2C)cc1 | active: 14.1 µM
26 | COc1ccc2c(c1)OC(c1ccccc1)(C(F)(F)F)NC2=O (centres undefined) | inactive
27 | Cc1[nH]n(-c2ccc([N+](=O)[O-])cc2)c(=O)c1C=NCCN1CCN(C(=O)C(C)C)CC1 | active: 14.1 µM
28 | CCOc1ccc(N=Nc2c(N)[nH][nH]c2=O)cc1 | inconclusive: 17.8 µM [falling, partial curve]
29 | CN1/C(=C\C=C2/SC(=S)NC2=O)C(C)(C)c2ccccc21 | inconclusive: 14.1 µM [falling, partial curve]
30 | CC(=O)Nc1nonc1NC(=O)CSc1nc2ccccc2o1 | inactive
31 | Cc1cccc(/C=N/Nc2nncc3ccccc23)c1 | inconclusive: 14.1 µM [falling, partial curve]
32 | COc1ccc(C2/C=C\CN(C(=O)c3ccccc3)CC(=O)N2Cc2ccc(F)cc2)cc1 (centres undefined) | inactive
33 | CC(C)Sc1nnc(NC(=O)CCc2ccccc2)s1 | inactive
34 | COc1c(Cl)cccc1-c1cn2ccccc2n1 | active: 7.08 µM
35 | Cc1ccc(/C=C(\C#N)C(=O)Nc2ccccn2)o1 | inconclusive: 22.4 µM [falling, single point]
36 | Nc1ccc(-c2nc3ccc(C(=O)O)cc3s2)cc1 | inconclusive: 17.8 µM [falling, partial curve]
37 | Cc1ccsc1-c1n[nH]c(=S)n1CC(C)C | active: 14.1 µM
38 | Cc1cc2c(N)cccc2nn1 | inconclusive: 39.8 µM [falling, single point]
39 | CCn1c(C)cc(=S)c2ccccc21 | inconclusive: 35.5 µM [falling, single point]
40 | COc1cccc2nc3cc(C)c(C)cc3nc12 | active: 12.6 µM
41 | CCN(CC)C(=O)c1sc2[nH]c(=S)n(-c3ccccc3)c(=O)c2c1C | inconclusive: 31.6 µM [falling, single point]
42 | O=C1N=c2ccccc2=C1c1sc(NS(=O)(=O)c2ccccc2)nc1O | inactive

Row | Compound | Potency
43 | Cc1csc(NC(=O)c2cc3c(s2)CCCCC3)n1 | inconclusive: 28.2 µM [falling, single point]
44 | CC(=O)c1c(CC(=O)O)[nH]n(-c2nc3ccccc3s2)c1=O | inconclusive: 17.8 µM [falling, partial curve]
45 | Cc1occc1C(=O)Nc1cc(C(C)(C)C)on1 | active: 12.6 µM
46 | CSC(=NNC(=O)c1ccc(O)cc1)SC | inconclusive: 31.6 µM [falling, single point]
47 | CCCCC(=O)N/N=C/c1c(O)n(CCCC)c(=S)[nH]c1=O | inconclusive: 35.5 µM [falling, single point]
48 | COc1ccc(C2(C(=O)c3ccccc3)C(=O)c3ccccc3C2=O)cc1 | inconclusive: 39.8 µM [falling, single point]
49 | Cc1nc(/C(N)=N/OC(=O)c2ccccc2Cl)c(C(F)(F)F)o1 | active: 12.6 µM
50 | COc1cccc(CNS(=O)(=O)c2ccc(S(=O)(=O)N3CCCC3)cc2)c1 | inconclusive: 14.1 µM [falling, partial curve]
51 | O=[N+]([O-])c1ccc(O)c(C=Nc2ccc3oc(Cc4ccc(Cl)cc4)nc3c2)c1 | inactive
52 | COc1ccc(C(=O)Nc2nnc(-c3ccco3)s2)cc1 | inconclusive: 4.47 µM [falling, full curve]
53 | Cc1cccc(-c2nc3cc(NC(=O)C4CCCO4)ccc3o2)c1 (centres undefined) | inconclusive: 15.8 µM [falling, partial curve]
54 | COc1ccc(/C=N/N=C2/NC(=O)C(CC(=O)O)S2)cc1OCc1ccccc1Cl (centres undefined) | inconclusive: 25.1 µM [falling, single point]
55 | CCCC(NC(=O)CCl)c1ccccc1 (centres undefined) | inactive
56 | Cc1ccc2c(c1)CC1(CN2C)C(=O)OC2(CCCCC2)OC1=O | active: 14.1 µM
57 | c1c2c(cc3sc(N4CCCCC4)nc13)OCCO2 | active: 6.31 µM
58 | O=C(N/N=C/c1ccc(OC(F)F)cc1)C1=COCCO1 | inconclusive: 22.4 µM [falling, single point]
59 | Cc1ccc(-c2nc3cc(N)ccc3o2)cc1 | inconclusive: 10 µM [falling, partial curve]
60 | COc1ccc(C(=O)O/N=C(\C)c2cnccn2)cc1 | inconclusive: 15.8 µM [falling, partial curve]
61 | Cc1n[nH]c(C)c1S(=O)(=O)N1CCC(C(=O)O)CC1 | inactive
62 | Cc1cccc(NS(=O)(=O)c2ccc(Cl)cc2)n1 | inactive
63 | COc1ccc(-n2c(-c3ccc(Br)cc3)n[nH]c2=S)cc1 | active: 10 µM

Row | Compound | Potency
64 | CN(C(=O)c1cccc(Nc2ccc(-c3ccc4c(c3)OCCO4)nn2)c1)C1CCCCC1 | inconclusive: 28.2 µM [falling, single point]
65 | COc1cc(/C=C2/C(=O)N(c3ccc(C(=O)O)cc3)N=C2C)cc(OC)c1O | inconclusive: 39.8 µM [falling, partial curve]
66 | c1ccc2c(c1)Cn1c-2nc2ccccc21 | active: 14.1 µM
67 | c1csc(-c2nc3ccccc3s2)c1 | inconclusive: 17.8 µM [falling, partial curve]
68 | CC(C)c1ccc(N2C(=O)/C(=C/N(C)C)SC2=S)cc1 | inconclusive: 28.2 µM [falling, single point]
69 | O=[N+]([O-])c1ccc2oc(-c3cccc(O)c3)nc2c1 | inconclusive: 14.1 µM [falling, partial curve]
70 | CCOC(=O)c1sc(NC(=O)c2ccccc2)cc1C | inconclusive: 11.2 µM [falling, partial curve]
71 | Cc1ccn2cc(-c3nonc3C)cc2c1 | inconclusive: 25.1 µM [falling, single point]
72 | CCOc1ccc(-c2nc(-c3ccccc3C)no2)cc1 | inconclusive: 14.1 µM [falling, partial curve]
73 | Cc1nc(C)c(C(=O)Nc2cccc(F)c2)s1 | inactive
74 | COc1ccc(NC(=O)C#Cc2ccccc2)cc1 | inactive
75 | COc1ccc(OCc2n[nH]c(=S)n2-c2ccc(C)cc2)cc1 | inconclusive: 10 µM [falling, partial curve]
76 | O=C1NCCCC2c3cc(O)c4ccccc4c3OC12N1CCCCC1 (centres undefined) | inconclusive: 12.6 µM [falling, partial curve]
77 | CN(C)c1ccc(NC(=S)c2ccccn2)cc1 | active: 4.47 µM
78 | O=[N+]([O-])c1cccc(-c2n[nH]c(=S)n2Cc2ccccc2)c1 | inconclusive: 22.4 µM [falling, single point]
79 | CCNC(=S)N/N=C/c1ccc(C(=O)O)cc1 | inconclusive: 28.2 µM [falling, single point]
80 | Cc1ccc(S(=O)(=O)c2c(C)nn(C(C)(C)C)c2OC(=O)c2ccc(Br)o2)cc1 | inactive
81 | CCOC(=O)c1ccc(N/C=C/C(=O)c2ccco2)cc1 | active: 14.1 µM
82 | Cn1c(-c2nonc2NC(=O)c2ccc(C(C)(C)C)cc2)nc2ccccc21 | inactive
83 | CCn1c(-c2cc3c(C(F)(F)F)nn(C)c3s2)n[nH]c1=S | inconclusive: 10 µM [falling, partial curve]
84 | O=C(N/N=C/c1ccccn1)c1ccc(Cl)c(Cl)c1 | inactive
